The values below come from paper PMC13083723 (Patterns, 2026).

Among all 5,400 compounds or so, about 190 (3.5%) showed an effect of 50% or more. The list shows a part of the results.

The subject of the assay is Vero-E6. In words: primary screen, phospholipidosis by LipidTOX staining; higher = more effect of the substance. As to conditions: 10 µM. Here is the method:
To measure drug-induced PLD in Vero-E6 cells, we used the HCS LipidTOX Red Phospholipidosis Detection Reagent (Invitrogen, #H34351), which is non-toxic to cell growth and remains well retained after aldehyde fixation. In this setup, compounds (at 10 μM concentration) and controls (amiodarone: 10 μM concentration; DMSO: 0.1 v/v %) were added to clear-bottom, 384-well plates (PhenoPlate 384-well, black, optically clear flat bottom, tissue-culture treated, Revvity #6057302) using the Echo Liquid Handler (Labcyte).
Regarding `Cc1nc(C#Cc2ccnc(Cl)c2)c(C)n1-c1ccc(F)cc1`, the result_ITMP is given as 0.4%.

As to `Cc1ncc(NC(=O)c2ccc(CN3CCN(C)CC3)c(C(F)(F)F)c2)cc1Nc1nccc(-c2cccnc2)n1`, the result_ITMP was 9.33%.

For `COC1CCN(c2cccc(-c3cc(NC(C)=O)nc(-n4nc(C)cc4C)n3)n2)CC1`, the result_ITMP is on record as 0.24%.

Take `Nc1ncnc2c1ncn2C1OC2COP(=O)([O-])OC2C1O` (stereo not drawn): the result_ITMP was -10.8%.

As to `O=C(O)CCCCCCNC1c2ccccc2CCc2ccccc21`, the result_ITMP is listed as 0.29%.

For `Cc1cccc(COc2cccc(/C=C3\C(=O)NN(c4ccccc4)C3=O)c2)c1`, the result_ITMP was -0.83%.

With `Oc1ccc(OCc2ccccc2)cc1`, the result_ITMP is -11.6%.

Consider `N=C1NC(=O)N2CC12` (stereo not drawn), for which the result_ITMP is listed as -6.93%.

For the molecule `O=C(NCC(=O)N1CCCCC1)Nc1ccc2nnsc2c1`, the result_ITMP was -0.73%.

Consider `NC(=O)C[S@@](=O)C(c1ccccc1)c1ccccc1`, for which the result_ITMP came to 0.14%.

`CNC(=O)[C@H](Cc1c[nH]c2ccccc12)NC(=O)[C@@H](CC(=O)NO)CC(C)C`: the result_ITMP is given as -8.58%.

On to `CCCCC[C@H](O)/C=C/[C@@H]1[C@@H](C/C=C\CCCC(=O)O)[C@@H](O)C[C@H]1O`, for which the result_ITMP turned out to be 1.08%.

On to `CC(C)(Cc1c[nH]c2ccc(Cl)cc12)NCCOc1ccccc1OCC1CC1`, for which the result_ITMP is reported as 48.5%.

For `Nc1nc2ccc(Cl)cc2c2nc(-c3ccco3)nn12`, the result_ITMP was found to be 2.92%.

Turning to `CCNC(=O)NS(=O)(=O)c1sc(CC(C)C)cc1-c1ccc(Cn2c(-c3ccccc3)nc(OC)c2C=O)cc1`, the result_ITMP was -0.82%.

As to `CC1(C)CCC(C)(C)c2cc(Cn3cccn3)c(/C=C/c3ccc(C(=O)O)cc3)cc21`, the result_ITMP is given as -1.86%.

Consider `CCC(C)N(C)C(=O)c1cc2ccccc2c(-c2ccccc2Cl)n1` (stereo not drawn), for which the result_ITMP is -9.34%.

For the molecule `Cc1cccc([C@H](C)c2cnc[nH]2)c1C`, the result_ITMP was 2.46%.

In the case of `COc1cc2c(cc1C(F)(F)F)N(C(=O)Nc1cc(F)cc(-c3cccnc3)c1)CC2`, the result_ITMP is reported as -2.05%.

For `C#CC[C@H](c1nc2cc(Cl)ccc2c(=O)n1Nc1ccccc1)N(CCCN)C(=O)c1cccc(Cl)c1F`, the result_ITMP worked out at 68.4%.

As to `CC(=O)C(=Cc1cc(O)c(O)c([N+](=O)[O-])c1)C(C)=O`, the result_ITMP was -0.23%.

Take `C[C@@H]1CCN(C(=O)CC#N)C[C@@H]1N(C)c1ncnc2[nH]ccc12`: the result_ITMP is -5.28%.

For the molecule `Cc1cc2c(F)c(Oc3ncnn4cc(OC[C@@H](C)OC(=O)[C@H](C)N)c(C)c34)ccc2[nH]1`, the result_ITMP came to 2.28%.

As to `CO/N=C(\C(=O)N[C@@H]1C(=O)N2C(C(=O)[O-])=C(COC(C)=O)CS[C@H]12)c1csc(N)n1`, the result_ITMP was -7.3%.

For `CC(NCCC(c1ccccc1)c1ccccc1)c1ccccc1` (stereo not drawn), the result_ITMP came to 43.7%.

Turning to `C[C@@H]1COCCN1c1cc(C2(S(C)(=O)=O)CC2)nc(-c2cccc3[nH]ccc23)n1`, the result_ITMP is -0.84%.

As to `CCOC(=O)Nc1cc(-c2ccc(C)c(NS(C)(=O)=O)c2)nn2c(C)nnc12`, the result_ITMP is listed as 22%.

For the molecule `Cc1ccc(C[N+](C)(C)C)o1`, the result_ITMP came out at 0.45%.

`CS(=O)(=O)Nc1ccc2oc3c(OC(F)F)ccc(C(=O)Nc4c(Cl)cncc4Cl)c3c2c1`: the result_ITMP is -0.14%.

For the molecule `CCN(CC)CCc1nc(-c2ccccc2)no1`, the result_ITMP worked out at 3.95%.

On to `Cc1cc(-c2nncc3c(C(C)(C)C)c(OCc4ncnn4C)nn23)no1`, for which the result_ITMP is -1.71%.

Regarding `CN(C)C(=O)CCSC(SCCC(=O)[O-])c1cccc(/C=C/c2ccc3ccc(Cl)cc3n2)c1` (stereo not drawn), the result_ITMP is given as -1.04%.

On to `CCOc1c2c(c(OCC)c3ccccc13)C(=O)N(c1ccc(CC(=O)NS(=O)(=O)c3ccccc3)cc1)C2`, for which the result_ITMP is recorded as -1.28%.

As to `CNCC(O)c1ccc(OC(=O)C(C)(C)C)c(OC(=O)C(C)(C)C)c1` (stereo not drawn), the result_ITMP is given as -4.47%.

With `C/C(=N\NC(=S)NNC(=S)Nc1ccccc1Cl)c1ccccn1`, the result_ITMP is on record as -0.18%.

In the case of `Cc1nccc2c1[nH]c1ccccc12`, the result_ITMP turned out to be 1.05%.

Regarding `O=C(NCCO)c1cccc(-c2cc(Nc3ccc(OC(F)(F)F)cc3)ncn2)c1`, the result_ITMP is given as -2.64%.

`CC1CCN(C(c2ccc(F)cc2)c2ccc(C(C)C(=O)O)cc2-c2ccc(C(F)(F)F)cc2)CC1` (stereo not drawn): the result_ITMP amounted to 4.63%.

With `O=C(CS(=O)Cc1ccco1)NC/C=C\COc1cc(CN2CCCCC2)ccn1` (stereo not drawn), the result_ITMP is -4.76%.

For the molecule `O=S(=O)(O)NC1CCCCC1`, the result_ITMP was -2.13%.

Consider `CCCCCCCCNC(=O)/C(C#N)=C/c1cn(CCCN(C)C)c2ccccc12`, for which the result_ITMP stood at 10.9%.

Ac-PHSCN-NH2: the result_ITMP is recorded as -1.65%.

On to `OC[C@H]1O[C@H](O)[C@H](O)[C@@H](O)[C@@H]1O`, for which the result_ITMP is reported as -3.41%.

Turning to `CC(C)[C@@H](CN1CC[C@@](C)(c2cccc(O)c2)[C@@H](C)C1)NC(=O)[C@H]1Cc2ccc(O)cc2CN1`, the result_ITMP is recorded as 5.03%.

For `Cn1c(NC[C@@H](N)Cc2ccccc2)nc(-c2ccncc2)c(-c2ccc3ccccc3c2)c1=O`, the result_ITMP is 27.9%.

Consider `O=c1oc2ccccc2c(O)c1Cc1c(O)c2ccccc2oc1=O`, for which the result_ITMP is listed as -5.4%.

On to `CS(=O)(=O)N1CCc2c(-c3cnc(N)nc3)nc(N3CCOCC3)nc21`, for which the result_ITMP is on record as 4.22%.

Regarding `Cn1ccc2cc(NC(=O)Nc3cccnc3)ccc21`, the result_ITMP was -0.64%.

As to `CN1C(CSCC(F)(F)F)Nc2cc(Cl)c(S(N)(=O)=O)cc2S1(=O)=O` (stereo not drawn), the result_ITMP was 0.28%.

Consider `NC(=S)N/N=C/c1coc2ccccc2c1=O`, for which the result_ITMP is given as -1.79%.

Regarding `CC(=O)[C@]1(O)Cc2c(O)c3c(c(O)c2[C@@H](O[C@H]2C[C@H](N)[C@H](O)[C@H](C)O2)C1)C(=O)c1ccccc1C3=O`, the result_ITMP is reported as -10.6%.

Regarding `C[C@H](Nc1cc(NS(=O)(=O)N2CCC2)nc(SCc2cccc(F)c2F)n1)[C@@H](O)CO`, the result_ITMP is given as -1.49%.

For the molecule `CN1CCN(CCCN2c3ccccc3Sc3ccc(Cl)cc32)CC1`, the result_ITMP is listed as 38.9%.

With `CCN(c1ccccc1)c1cc(NC)[n+](C)c(C)n1`, the result_ITMP came out at 2.05%.

Take `COC(=O)CCSCc1ccc(-c2onc(C)c2NC(=O)OC(C)c2ccccc2Cl)cc1` (stereo not drawn): the result_ITMP is recorded as 1.75%.

Turning to `Nc1c(S(=O)(=O)[O-])cc(Nc2cccc3ccccc23)c2c1C(=O)c1ccccc1C2=O`, the result_ITMP is on record as -11.1%.

Take `c1ccc(CNc2nc(NCc3ccccc3)c3ccccc3n2)cc1`: the result_ITMP worked out at 58.9%.

For `CC(=O)OCC(=O)[C@@]1(O)CCC2C3CCC4=CC(=O)C=CC4(C)C3[C@@H](O)C[C@@]21C` (stereo partly drawn), the result_ITMP is given as -4.54%.

On to `O=C([O-])C1=C(CSc2nnnn2CS(=O)(=O)[O-])CS[C@@H]2[C@H](NC(=O)[C@H](O)c3ccccc3)C(=O)N12`, for which the result_ITMP is reported as 0.51%.

As for `CCCOc1ccn2c(C(C)=O)cc(-c3ccccc3S(C)(=O)=O)c2c1`, the result_ITMP was -2.9%.

Turning to `CCCN(CCC)C1CCc2cccc(O)c2C1` (stereo not drawn), the result_ITMP worked out at 1.02%.

For the molecule `COC(=O)[C@]12CCC(C)(C)C[C@H]1[C@H]1C(=O)C=C3[C@@]4(C)C=C(C#N)C(=O)C(C)(C)[C@@H]4CC[C@@]3(C)[C@]1(C)CC2`, the result_ITMP is -10.9%.

`CCC(=O)OCN1C(=O)C=CC1=O`: the result_ITMP is given as -2%.

Turning to `CC(/C=C1\SC(=S)N(CC(=O)O)C1=O)=C\c1ccccc1`, the result_ITMP is on record as -0.12%.

On to `C[N+](C)(C)CC[N+]1(C)Cc2c(Cl)c(Cl)c(Cl)c(Cl)c2C1`, for which the result_ITMP was 2.19%.

Consider `CN1CCN(c2c(F)cc3c(=O)c(C(=O)O)cn(CCF)c3c2F)CC1`, for which the result_ITMP is on record as -12.5%.

In the case of `O=C(O)C(O)c1ccccc1` (stereo not drawn), the result_ITMP was -1.64%.

For the molecule `C=CCCCCCCCCC(=O)[O-]`, the result_ITMP is 1.9%.

`CC(=O)OCC(CCn1cnc2cnc(N)nc21)COC(C)=O`: the result_ITMP is listed as 7.98%.

In the case of `NNc1nncc2ccccc12`, the result_ITMP was -2.34%.

Take `O=c1c2c[nH]c3ccccc3c-2nn1-c1ccc(Cl)cc1`: the result_ITMP is given as -10.3%.

On to `CCNC(=O)CCC(N)C(=O)O` (stereo in doubt), for which the result_ITMP was -4.2%.

Take `C=CC(=O)Nc1cccc(Oc2nc(Nc3ccc(N4CCN(C)CC4)cc3OC)ncc2Cl)c1`: the result_ITMP is given as -1.32%.

For `O=C(/C=C/c1ccc(O)c(O)c1)OCCc1ccccc1`, the result_ITMP is -9.88%.

For the molecule `N[C@@H]1c2cccnc2[C@H](OC(=O)N2CCC(n3c(=O)[nH]c4ncccc43)CC2)CC[C@H]1c1cccc(F)c1F`, the result_ITMP is listed as -1.5%.

Consider `COc1c2occc2c(OC)c2c(=O)cc(C)oc12`, for which the result_ITMP is 0.72%.

Take `COc1ccc(CCN(C)CCCC(C#N)(c2cc(OC)c(OC)c(OC)c2)C(C)C)cc1OC` (stereo not drawn): the result_ITMP amounted to 6.5%.

Turning to `Nc1cc(C(Cl)=C(Cl)Cl)c(S(N)(=O)=O)cc1S(N)(=O)=O`, the result_ITMP is listed as -5.15%.

As for `Cc1ccccc1CN1C2=NCCN2C(=O)C2=C1CCN(Cc1ccccc1)C2`, the result_ITMP is listed as -4.39%.

For the molecule `NCCNS(=O)(=O)c1ccc(Cl)c2ccncc12`, the result_ITMP is 0.33%.

For `O=C(Nc1ccccc1)Nc1ccc(-c2ccc(C(=O)[C@@H]3CCC[C@H]3C(=O)O)cc2)cc1` [R4A_0000400_001 / SPE_K28861668], the result_ITMP is on record as -3.95%.

Turning to `CC[C@H](C)C(=O)O[C@H]1CCC=C2C=C[C@H](C)[C@H](CC[C@@H]3C[C@@H](O)CC(=O)O3)[C@H]21`, the result_ITMP is -0.91%.

For the molecule `O=C(NCCN1CCC2(CC1)C(=O)NCN2c1cccc(F)c1)c1ccc2ccccc2c1`, the result_ITMP came out at 55.1%.

For `CC/C(=C(\c1ccc(OCCN(C)C)cc1)c1cccc(O)c1)c1ccccc1`, the result_ITMP is 77.7%.

`O=C1OCCN1/N=C/c1ccc([N+](=O)[O-])o1`: the result_ITMP is listed as -2.92%.

`NC(=O)c1ccc([N+](=O)[O-])cc1Cl`: the result_ITMP was -6.31%.

In the case of `c1ccc2c(c1)[I+]c1ccccc1-2`, the result_ITMP is -0.66%.

In the case of `CCOC(=O)[C@H](CCc1ccccc1)N[C@H]1CS[C@H](c2cccs2)CN(CC(=O)O)C1=O`, the result_ITMP is -0.65%.

In the case of `Cc1cn2nc([C@@H]3CCCCN3C(=O)c3cc(Cl)ccc3NS(C)(=O)=O)cc2nc1N1CC[C@H](N)C1`, the result_ITMP came to 20.6%.

As for `CN(C)N(C)C(=O)[C@@]1(Cc2ccccc2)CCCN(C(=O)[C@@H](Cc2c[nH]c3ccccc23)NC(=O)C(C)(C)N)C1`, the result_ITMP is reported as -0.2%.
